Data taken from a compilation of properties of binary mixtures (doi:10.1016/j.molliq.2016.02.091).
Some of these densities may be calculated back from excess volumes.

Test: xn = mol fraction of the nth substance listed
Conditions: 101 kPa

CC[n+]1ccn(C)c1.COS(=O)(=O)[O-] + CC(=O)O
mass density [kg/m3]
Conditions | x2 = 0 | x2 = 0.1669 | x2 = 0.3003 | x2 = 0.5004 | x2 = 0.6432 | x2 = 0.7503 | x2 = 0.8336 | x2 = 0.9001 | x2 = 0.9546 | x2 = 0.9783
298.15 K | 1286 | 1274.8 | 1263.3 | 1238.2 | 1213.2 | 1188.6 | – | 1130.6 | 1091.3 | –
303.15 K | 1282.5 | 1271.7 | 1259.7 | 1234.7 | – | 1184.1 | – | 1126.3 | – | 1063.8
308.15 K | 1279.1 | – | 1256 | 1231 | 1204.9 | 1179.6 | 1153 | 1121.6 | 1082.1 | 1058.7
313.15 K | 1275.7 | 1265.4 | 1252.5 | – | 1200.8 | 1175.1 | 1148.6 | 1117.5 | 1077.7 | 1053.8

CC[n+]1ccn(C)c1.COS(=O)(=O)[O-] + CCC(=O)O
mass density [kg/m3]
Conditions | x2 = 0 | x2 = 0.1332 | x2 = 0.2478 | x2 = 0.4345 | x2 = 0.5804 | x2 = 0.6975 | x2 = 0.7935 | x2 = 0.8737 | x2 = 0.9417 | x2 = 0.9719
298.15 K | 1286 | 1272.2 | 1257.1 | 1224.5 | 1192.6 | 1160.2 | 1125.1 | 1084.8 | 1038.9 | –
303.15 K | 1282.5 | 1269 | 1253.7 | 1221.1 | 1188.8 | 1155.9 | 1120.6 | 1080.4 | 1034.6 | 1009.4
308.15 K | 1279.1 | 1265.9 | 1250.4 | 1217.7 | 1185 | 1151.5 | 1116 | 1076.1 | 1030.3 | 1004.8
313.15 K | 1275.7 | 1262.8 | 1247.1 | 1214 | 1181 | 1147.6 | 1112 | 1071.5 | 1025.1 | –

CC(=O)O + CC[n+]1ccn(C)c1.COS(=O)(=O)[O-]
x1 = 1
Conditions | mass density [kg/m3]
298.15 K | 1044
303.15 K | 1038.3
308.15 K | 1032.7
313.15 K | 1027

CCC(=O)O + CC[n+]1ccn(C)c1.COS(=O)(=O)[O-]
x1 = 1
Conditions | mass density [kg/m3]
303.15 K | 982.8
308.15 K | 977.5
